Laboratory results: PubChem BioAssay AID504832 (National Center for Advancing Translational Sciences (NCATS), 2011)
Out of some 310,000 compounds screened, about 18,000 (5.8%) were called active. This list was built around the results that the source calls inconclusive (neither active nor inactive); the mix of calls is not that of the screen. The call rests on the fitted dose curve; in most records, active means well fitted inhibition curve with a large enough effect; inconclusive means small, poorly fitted or top-dose-only effect, or another doubt; inactive means no such curve, though single readings can be large or run the other way. No potency is given beside an inconclusive call; the fits are too rough.

Test: Primary qHTS for delayed death inhibitors of the malarial parasite plastid, 48 hour incubation
Settings: P. falciparum luciferase growth in erythrocytes; series mostly up to 28.7 µM; activity change, negative = inhibition: at the top concentration
Outline: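 Read-out is firefly luciferase luminescence from an integrated reporter in P. falciparum, so falling signal marks reduced parasite growth. Infected erythrocytes were at 2% hematocrit and 0.1% parasitemia (final) in Albumax-supplemented RPMI 1640.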
On the % scale 0 is the no-effect control and ±100 the full control effect; potency means the concentration at half of the fitted maximal effect; tags describe the fitted curve by direction and shape.

SMILES | Potency | activity change, negative = inhibition
Cc1csc2c(N(C)CCO)ncnc12 | inconclusive [inhibitor, partial curve, poor fit] | 
CCOc1ccc2[nH]c(=O)c(CN(Cc3ccc(C)cc3)C(=O)N3CCCC3)cc2c1 | inconclusive [inhibitor, partial curve, poor fit] | 
Cn1c(=O)n(C)c2cc([N+](=O)[O-])c(N3CCN(S(=O)(=O)c4ccc5ccccc5c4)CC3)cc21 | inconclusive [inhibitor, partial curve] | 
CCOc1cc(C2C(C#N)=C(N)Oc3cc(N)ccc32)ccc1O (centres undefined) | inconclusive [inhibitor, single point] | 
CNC(=O)C1Cc2ccccc2CN1S(=O)(=O)c1ccc(OC)c(OC)c1 (centres undefined) | inconclusive [inhibitor, single point] | 
Cc1ccc(-c2csc(NC(=O)CCNC(=O)c3ccccc3Cl)n2)cc1 | inconclusive [inhibitor, partial curve, poor fit] | 
CCc1ccc2c(c1)cc(CN(Cc1ccco1)C(C)=O)c1nnnn12 | inconclusive [inhibitor, partial curve, poor fit] | 
O=C(CCn1c(=O)c2ccccc2n(Cc2cccnc2)c1=O)NCc1ccc2c(c1)OCO2 |  | inactive: 1.54%
COCC1CCN(C(=O)CC2C(=O)NCCN2Cc2cccc(Oc3ccccc3)c2)CC1 (centres undefined) | active: 14.7 µM | 
CC(=O)N1c2ccc(S(=O)(=O)N(C)CC(=O)N3CCCC3)cc2CC1C (centres undefined) |  | inactive: -4.37%
CN(C)S(=O)(=O)c1cccc(-c2nn(-c3ccccc3)cc2/C=C2\SC(=S)N(CC(=O)O)C2=O)c1 | inconclusive [inhibitor, partial curve, poor fit] | 
O=c1c2ccccc2c(-c2ccccc2)nn1Cc1c(Cl)cccc1Cl | inconclusive [inhibitor, single point] | 
CCS(=O)(=O)c1nc(S(=O)(=O)c2ccc(C)cc2)c(NCCCN2CCOCC2)s1 | inconclusive [inhibitor, single point] | 
Fc1ccc(-c2nn3c(C4COc5ccccc5O4)nnc3s2)cc1 (centres undefined) |  | inactive: 11.9%
CCOc1ccc(Cl)cc1S(=O)(=O)N1CCN(c2ccc(C)c(C)c2)CC1 | inconclusive [inhibitor, single point] | 
Cc1oc(-c2cc(F)ccc2F)nc1CN1CCN(c2cnccn2)CC1 | active: 13.1 µM | 
CC1CCN(c2ccc(NC(=O)c3ccccc3[N+](=O)[O-])cc2)CC1 |  | inactive: -8.52%
CCCCCc1nnc(NC(=O)Cc2ccc([N+](=O)[O-])cc2)s1 | inconclusive [inhibitor, single point] | 
O=C(O)CC1(CC(=O)Nc2cc(F)ccc2Cl)CCCCC1 |  | inactive: -7.48%
C/C(Cn1cnc([N+](=O)[O-])n1)=N\NC(=O)c1cccc(F)c1 |  | inactive: 136%
CCOC(=O)c1ccc(N2CCOCC2)c(NC(=O)c2c(-c3ccccc3)noc2C)c1 | active: 13.1 µM | 
Cc1ccccc1C(=O)N1CCC(C(=O)Nc2ccc(C)c(S(=O)(=O)N3CCCCC3)c2)CC1 | active: 13.1 µM | 
Cc1c(C)c2ccc(OCC(=O)Nc3ccc(CN4CCOCC4)cc3)cc2oc1=O | inconclusive [inhibitor, single point] | 

SMILES | Potency | activity change, negative = inhibition
CN(C(=O)c1cc(COc2ccc(F)cc2Cl)on1)C1CCCc2ccccc21 (centres undefined) | inconclusive [inhibitor, single point] | 
COc1cc(/C=C/c2nc(-c3ccccc3O)n[nH]2)cc(OC)c1OC | inconclusive [inhibitor, single point] | 
CCOC(=O)N1CCN(C(=O)CSCc2ccc(Br)cc2)CC1 |  | inactive: 8.82%
COC(=O)N/N=C/c1ccc(OS(=O)(=O)c2ccc(C)cc2)c(OC)c1 | inconclusive [inhibitor, single point] | 
O=C(NCc1cn(-c2ccccc2)nc1-c1ccccc1)c1cc([N+](=O)[O-])cc([N+](=O)[O-])c1 | inconclusive [inhibitor, single point] | 
O=C(NCCc1nc(-c2ccc(F)cc2)no1)c1ccc(F)cc1 | inconclusive [inhibitor, single point] | 
CCc1nc2ccccc2c(C(=O)Oc2cccc3cccnc23)c1C | inconclusive [inhibitor, partial curve] | 
CCN1CCCC1CN(Cc1cc2ccc(C)cc2[nH]c1=O)C(=S)Nc1ccccc1C(=O)OC (centres undefined) | inconclusive [inhibitor, single point] | 
Cc1cc(C)c(O)c(-c2cc(C(=O)Nc3ccc(S(=O)(=O)N4CCOCC4)cc3)[nH]n2)c1 | active: 5.86 µM | 
COc1cccc(-c2noc(N)c2C#N)c1 | active: 7.38 µM | 
COC(=O)c1ccc(C(c2c(N)n(CC(C)C)c(=O)[nH]c2=O)N2CCN(c3ccccc3)CC2)cc1 (centres undefined) | inconclusive [inhibitor, full curve, poor fit] | 
COc1ccc(CCn2c(O)cc3nn(-c4nc5ccccc5s4)c(=O)c-3c2C)cc1 | inconclusive [inhibitor, partial curve] | 
Cc1nn2c(-c3ccncc3)nnc2c2ccccc12 |  | inactive: 10.9%
Cc1cc(C)c2nc(NNC(=O)c3ccc(S(=O)(=O)N4CCCCC4)cc3)sc2c1 | inconclusive [inhibitor, partial curve] | 
Brc1ccc(C2=CC(c3cccs3)n3ncnc3N2)cc1 (centres undefined) | inconclusive [inhibitor, single point] | 
COCCOC(=O)CSc1ncccc1-c1nc2cc(C)c(C)cc2[nH]1 |  | inactive: 118%
COc1ccc(C2CC(c3cccs3)=NN2C(=O)CSc2nnnn2C)cc1OC (centres undefined) | inconclusive [inhibitor, partial curve, poor fit] | 
NS(=O)(=O)c1ccc(CCNC(=O)CN2CCC(Cc3ccccc3)CC2)cc1 | inconclusive [inhibitor, partial curve, poor fit] | 
Cc1c(C(=O)N(C)C2CCCCC2)sc2ncnc(N3CCN(c4ccccc4)CC3)c12 | inconclusive [inhibitor, single point] | 
CC1(C)Cc2cccc(OCC(=O)NCCc3ccc(S(N)(=O)=O)cc3)c2O1 |  | inactive: -29.4%
COC(=O)Cc1ccc(NC(=S)NN2CCOCC2)cc1 |  | inactive: 3.98%
C=CCN(CC=C)c1nc2ccccc2nc1C(C#N)C(=O)OCCOC (centres undefined) | active: 10.4 µM | 
CC(C)[C@@H](CSc1ccccc1)N1CCN(Cc2ccccc2)CCC1=O | active: 14.7 µM | 

SMILES | Potency | activity change, negative = inhibition
CCc1nc(N2CCN(C(C)=O)CC2)c2c3c(sc2n1)CC(C(C)(C)C)CC3 (centres undefined) | inconclusive [inhibitor, partial curve] | 
Cc1ccc(S(=O)(=O)CC(CN2CCCCC2)N2CCCCC2)cc1 (centres undefined) | active: 8.28 µM | 
O=C(/C=C/c1cn(-c2ccccc2)nc1-c1cccnc1)c1ccco1 | inconclusive [inhibitor, single point] | 
CCOC(=O)[C@H]1[C@H]2COc3ccc(C)cc3[C@@H]2N2C(=O)c3ccccc3NC(=O)[C@@]12C | inconclusive [inhibitor, partial curve, poor fit] | 
CNC(=S)NNC(=O)c1ccc(C(C)(C)C)cc1 | inconclusive [inhibitor, full curve, poor fit] | 
CCc1ccc(NC(=O)C(NS(=O)(=O)c2cccc3nsnc23)c2ccccc2)cc1 (centres undefined) |  | inactive: -25.1%
CCC(=O)N1CCc2cc(S(=O)(=O)CCC(=O)Nc3ccc(OC)cc3)ccc21 |  | inactive: 4.69%
CCCCCCN(C(=O)CCCCCN1C(=O)NC(c2ccccc2)C(C(=O)OCc2ccccc2)=C1C)C(C(=O)NCCCC)c1ccc(OCC(=O)OC)c(C(=O)OC)c1 (centres undefined) | active: 2.08 µM | 
NS(=O)(=O)c1cc(C(=O)Nc2ccc3c(c2)CCC3)ccc1Cl |  | inactive: 41.1%
CCOC(=O)N1CCC(NC(=O)CSCc2cnn(-c3ccccc3)c2-n2cccc2)CC1 | inconclusive [inhibitor, single point] | 
CCCN(CC1CC1)C(=S)NC(=O)c1ccccc1Br | inconclusive [inhibitor, single point] | 
Cn1ncc([N+](=O)[O-])c1C(=O)N1CCCCCC1 |  | inactive: 4.36%
O=C1CN2CCC1C/C2=C\c1ccnc2c(Cl)cccc12 (centres undefined) |  | inactive: 17.1%
CCOC(=O)c1c(NC(=O)C(Sc2ccccc2)c2ccccc2)sc(C(N)=O)c1C (centres undefined) | inconclusive [inhibitor, single point] | 
CNC(=O)c1cc2c(s1)-c1ccccc1CC2 |  | inactive: 46.6%
Fc1ccccc1Oc1nc(-c2ccncc2)nc2ccccc12 | inconclusive [inhibitor, partial curve] | 
CCOC(=O)c1cccc(NC(=O)CSc2nnc(-c3ccoc3C)n2CC)c1 |  | inactive: -8.52%
COCCCC1CCN(Cc2cn[nH]c2-c2cc(OC)c(OC)c(OC)c2)CC1 |  | inactive: -15.6%
Cc1ccccc1NC(=S)NC(NC(=O)c1ccco1)C(Cl)(Cl)Cl (centres undefined) | inconclusive [inhibitor, single point] | 
COc1ccc(-c2noc(CCCC(=O)O)n2)cc1 | inconclusive [inhibitor, partial curve] | 
C/C(CC(=O)Nc1cc(C)ccn1)=N\NC(=O)c1cccc(C)c1O | inconclusive [inhibitor, single point] | 
Cc1c(C(=O)NCC2CCCO2)oc2ccc(S(=O)(=O)N3CCCC3)cc12 (centres undefined) | inconclusive [inhibitor, partial curve] | 
COCCNC(=O)CN1C(=O)c2cccc3cccc1c23 |  | inactive: 2.67%
